# Test results as given in patent US11178870B2 (priority 2017, dated 2021).
# Key:
# Phytophthora infestans = format: in vivo; conditions: Table 7, Test F
# [1] = test system: Colletotrichum orbiculare; conditions: 250 ppm sprayed (2.5 ml/pot) before inoculation; assessed 6 to 10 days after inoculation
# Magnaporthe grisea = format: in vivo; conditions: Table 7, Test A
Compound,"control value, Test F (late blight on tomato) (Phytophthora infestans)","control value, Test H (anthracnose on cucumber) [1]","control value, Test A (blast on rice) (Magnaporthe grisea)"
O=c1ccc(-c2cc(Br)sc2Br)c(-c2c(F)cccc2F)n1CC(F)F [Compound 324],L (L shows the control value of 50% or less),H (H shows the control value more than 50%),
Cc1cnn(-c2ccc(=O)n(CC(F)F)c2-c2ccc(F)cc2Br)c1 [Compound 338],L (L shows the control value of 50% or less),H (H shows the control value more than 50%),H (H shows the control value more than 50%)
Cc1cnn(-c2ccc(=O)n(CC(F)F)c2-c2ccc(F)cc2Cl)c1 [Compound 342],L (L shows the control value of 50% or less),H (H shows the control value more than 50%),H (H shows the control value more than 50%)
